Data taken from publication PMC11879689, “Integrative in silico and biochemical analyses demonstrate direct Arl3-mediated ODA16 release from the intraflagellar transport machinery” (The Journal of Biological Chemistry, 2025).
Results are given in words; binding and its absence hold for the method and conditions named. For part of these data: In cells and extracts the contact can be indirect. Some results given as binding are weak or reduced against the parent protein; the word gives no strength. For part of these data: Tags and fused reporters may be left off the sequences shown.

By UniProt entry, the sequences of proteins in these tests, tags left out. Where a name states a change or a piece, a line headed by the entry shows the natural chain unless it says otherwise.
UniProt Q9NQC8: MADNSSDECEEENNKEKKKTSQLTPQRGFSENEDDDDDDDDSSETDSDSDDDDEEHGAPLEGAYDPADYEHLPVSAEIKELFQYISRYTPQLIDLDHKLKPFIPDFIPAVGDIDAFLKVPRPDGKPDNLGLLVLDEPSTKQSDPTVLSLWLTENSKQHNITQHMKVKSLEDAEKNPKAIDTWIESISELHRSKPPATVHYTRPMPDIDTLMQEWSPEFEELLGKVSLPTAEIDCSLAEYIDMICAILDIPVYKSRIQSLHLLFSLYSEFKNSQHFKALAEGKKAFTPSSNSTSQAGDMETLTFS

T1: HsIFT46_Cr (chimeric HsIFT46 with residues 4-26 replaced by CrIFT46 residues 22-44), GFP-tagged (human | Chlamydomonas reinhardtii) (UniProt Q9NQC8+A2T2X4)
T1 sequence: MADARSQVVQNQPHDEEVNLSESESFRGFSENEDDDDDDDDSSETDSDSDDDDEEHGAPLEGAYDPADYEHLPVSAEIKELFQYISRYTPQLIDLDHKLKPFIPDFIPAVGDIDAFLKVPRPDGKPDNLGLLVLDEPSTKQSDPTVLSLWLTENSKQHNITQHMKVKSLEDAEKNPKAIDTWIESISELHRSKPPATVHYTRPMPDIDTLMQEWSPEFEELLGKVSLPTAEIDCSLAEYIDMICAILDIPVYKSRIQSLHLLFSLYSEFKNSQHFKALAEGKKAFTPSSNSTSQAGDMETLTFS

T2: GST-HsIFT74(1-272)/HsIFT81(1-215) complex (human) (UniProt Q96LB3+Q8WYA0)
T2 sequence 1: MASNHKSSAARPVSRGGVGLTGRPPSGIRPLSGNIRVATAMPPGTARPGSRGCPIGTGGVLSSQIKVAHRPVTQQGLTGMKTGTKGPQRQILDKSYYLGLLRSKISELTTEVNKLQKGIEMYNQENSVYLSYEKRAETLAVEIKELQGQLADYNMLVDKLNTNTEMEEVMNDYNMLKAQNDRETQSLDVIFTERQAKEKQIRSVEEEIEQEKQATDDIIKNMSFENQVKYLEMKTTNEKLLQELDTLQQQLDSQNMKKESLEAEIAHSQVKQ
T2 sequence 2: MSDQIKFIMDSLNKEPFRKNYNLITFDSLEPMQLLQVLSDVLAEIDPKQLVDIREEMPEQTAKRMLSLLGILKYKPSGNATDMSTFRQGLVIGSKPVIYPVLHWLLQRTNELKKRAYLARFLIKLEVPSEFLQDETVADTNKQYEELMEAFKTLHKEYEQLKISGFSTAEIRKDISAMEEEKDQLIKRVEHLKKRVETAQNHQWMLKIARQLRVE

T3: full-length CrODA16 (CrODA16fl) (Chlamydomonas reinhardtii, UniProt Q3Y8L7 1-446)
T3 construct: ODA16, Chlamydomonas reinhardtii, full length (N-terminal domain residues 1-80, C-terminal beta-propeller residues 80-445); it may be the same protein as CrODA16-HT
T3 sequence (looked up): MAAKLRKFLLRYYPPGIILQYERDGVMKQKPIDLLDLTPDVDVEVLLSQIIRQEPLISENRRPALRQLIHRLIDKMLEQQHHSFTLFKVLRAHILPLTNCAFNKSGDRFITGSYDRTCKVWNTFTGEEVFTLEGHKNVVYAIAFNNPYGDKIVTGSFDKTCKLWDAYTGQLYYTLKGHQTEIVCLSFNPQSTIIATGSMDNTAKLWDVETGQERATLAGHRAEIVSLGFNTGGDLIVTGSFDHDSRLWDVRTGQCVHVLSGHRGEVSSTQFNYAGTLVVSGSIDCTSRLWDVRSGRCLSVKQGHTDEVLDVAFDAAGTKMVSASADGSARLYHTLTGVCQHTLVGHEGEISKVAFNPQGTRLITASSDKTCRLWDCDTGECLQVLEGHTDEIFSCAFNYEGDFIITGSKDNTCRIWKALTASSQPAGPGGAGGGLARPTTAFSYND

T4: hexa-His-tagged CrODA16 (CrODA16-HT) (Chlamydomonas reinhardtii, UniProt Q3Y8L7 1-446)
T4 construct: ODA16, Chlamydomonas reinhardtii; Bait on nickel resin
T4 sequence (looked up): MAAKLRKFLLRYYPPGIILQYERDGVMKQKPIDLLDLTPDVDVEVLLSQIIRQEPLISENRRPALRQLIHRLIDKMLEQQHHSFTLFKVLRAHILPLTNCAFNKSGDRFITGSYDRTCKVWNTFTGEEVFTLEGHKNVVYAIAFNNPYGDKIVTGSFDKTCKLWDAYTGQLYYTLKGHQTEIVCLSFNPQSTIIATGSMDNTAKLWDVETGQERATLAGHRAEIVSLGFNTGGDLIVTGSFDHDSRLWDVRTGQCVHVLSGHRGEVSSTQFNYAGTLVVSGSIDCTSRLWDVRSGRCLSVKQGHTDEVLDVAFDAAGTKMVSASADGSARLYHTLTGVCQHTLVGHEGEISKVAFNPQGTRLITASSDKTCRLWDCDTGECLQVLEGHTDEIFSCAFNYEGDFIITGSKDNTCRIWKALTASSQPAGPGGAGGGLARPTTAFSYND


Columns and labels:
[1] = molecular target: T1, HsIFT46_Cr (chimeric HsIFT46 with residues 4-26 replaced by CrIFT46 residues 22-44), GFP-tagged (human | Chlamydomonas reinhardtii); experiment: pull-down; GFP-tagged HsIFT46_Cr from HEK293s cell lysate immobilised on GFP-Binder beads, purified ODA16 as prey; 200 mM NaCl; eluted with 0.1 M citric acid; only the binder purified
[2] = molecular target: T2, GST-HsIFT74(1-272)/HsIFT81(1-215) complex (human); experiment: condition: prey 20–30 μM, bait 10 μM (general pull-down methods); pull-down; GST-tagged bait (10 μM) immobilised on GSH resin, prey 20–30 μM, 1 h 4 °C; 10 mM HEPES pH 7.5, 200 mM NaCl, 2 mM MgCl2, 1 mM DTT; eluted with 33 mM reduced glutathione, SDS-PAGE; both purified
[3] = molecular target: T3, full-length CrODA16 (CrODA16fl); experiment: SEC; Superose 6 Increase 10/300 column; SDS-PAGE of the peaks; both purified
[4] = molecular target: T4, hexa-His-tagged CrODA16 (CrODA16-HT); experiment: condition: prey 20–30 μM, bait 10 μM (general pull-down methods); pull-down; CrODA16-HT (10 μM) immobilised on nickel resin, one prey (20–30 μM), 1 h 4 °C; 10 mM HEPES pH 7.5, 200 mM NaCl, 2 mM MgCl2, 1 mM DTT; eluted with 500 mM imidazole, SDS-PAGE; CrArl3 nucleotide-free; both purified

| binding [1] | binding [4] | Binder | other results |
| --- | --- | --- | --- |
| binds | – | HsODA16 (protein, UniProt Q8N136 1-415) MKLKSLLLRYYPPGIMLEYEKHGELKTKSIDLLDLGPSTDVSALVEEIQKAEPLLTASRTEQVKLLIQRLQEKLGQNSNHTFYLFKVLKAHILPLTNVALNKSGSCFITGSYDRTCKLWDTASGEELNTLEGHRNVVYAIAFNNPYGDKIATGSFDKTCKLWSVETGKCYHTFRGHTAEIVCLSFNPQSTLVATGSMDTTAKLWDIQNGEEVYTLRGHSAEIISLSFNTSGDRIITGSFDHTVVVWDADTGRKVNILIGHCAEISSASFNWDCSLILTGSMDKTCKLWDATNGKCVATLTGHDDEILDSCFDYTGKLIATASADGTARIFSAATRKCIAKLEGHEGEISKISFNPQGNHLLTGSSDKTARIWDAQTGQCLQVLEGHTDEIFSCAFNYKGNIVITGSKDNTCRIWR | binding [2]: no binding |
| binds | – | full-length CrODA16 (CrODA16fl) (protein, UniProt Q3Y8L7 1-446) MAAKLRKFLLRYYPPGIILQYERDGVMKQKPIDLLDLTPDVDVEVLLSQIIRQEPLISENRRPALRQLIHRLIDKMLEQQHHSFTLFKVLRAHILPLTNCAFNKSGDRFITGSYDRTCKVWNTFTGEEVFTLEGHKNVVYAIAFNNPYGDKIVTGSFDKTCKLWDAYTGQLYYTLKGHQTEIVCLSFNPQSTIIATGSMDNTAKLWDVETGQERATLAGHRAEIVSLGFNTGGDLIVTGSFDHDSRLWDVRTGQCVHVLSGHRGEVSSTQFNYAGTLVVSGSIDCTSRLWDVRSGRCLSVKQGHTDEVLDVAFDAAGTKMVSASADGSARLYHTLTGVCQHTLVGHEGEISKVAFNPQGTRLITASSDKTCRLWDCDTGECLQVLEGHTDEIFSCAFNYEGDFIITGSKDNTCRIWKALTASSQPAGPGGAGGGLARPTTAFSYND | – |
| – | – | CrIFT46/56 complex (complex, UniProt A2T2X4 1-344; A8JA42 1-555) chain 1: MDDSMDYPDRDGDDLDQFQGTARSQVVQNQPHDEEVNLSESESFAGADEPPAAPRDASLIESHDMDEGPAAPARTLSPTGYEAGKHAPGGIANSDEAPPGAYNAQEYKHLNVGEDVRELFSYIGRYKPQTVELDTRIKPFIPDYIPAVGGIDEFIKVPRPDTKPDYLGLKVLDEPAAKQSDPTVLTLQLRQLSKEAPGAKADMVGRLEHTDENKAKKIQQWIASINDIHKAKPAATVNYSKRMPEIEALMQEWPPEVETFLKTMHMPSGDVELDIKTYARLVCTLLDIPVYDDPVESLHVLFTLYLEFKNNPIFRQHMEMENKLDGMSGGGGGMMGGGADVLGL chain 2: MFYSKSRPQHAARTNVAQAAANEKPKVPELEEFLTKRDYLGAIALLSFRRHANRNDLKNLEWLAYCYFHYGEHDKALVIYKELLQHEDPDPMFFVYSAACLYYMGMYKEAEEQALQGPKCALQTRILFHSAQRQGNDDKLMAYHGQLTDSIEDQLTLASIHYQRSHFQEATDIYKRLLLEHRDYLRSTVVYVALCYCKLDYYDVSLEILGVYLSAFPDSAIAVNLKACNHFRMYNGKAAEAELKTLAELSGGQHLDHDLIRHNLVVFRGGENALQVLPPLSDIPPEARLNLVIHHLRHHEVGEAFGLIKDMEPSTPPEFILKAVVHAMLGQVKGDPEHLKKAQQYYQLVGASASECDTIPGRQCMASCFFLLKQFEDVLVFLSSIKTYFLNDDDFNWNLGIAKAATGKYKEAEETLLQIANDKYRNEYTYTSWLARCYIMNGKARLAWERYLQLETNDESYQLLLLIANDCYKMGAFYFACKAFDVLERLDPAPEYLEGKKGAACGAFQMIVAGKEPKDLLRDVISLLRGNNSADQCEPIVAVMRKWAKNNGVKL | binding [3]: binds |
| – | no binding | CrIFT46_32HDEE35_AAAA (protein, UniProt A2T2X4 1-344) MDDSMDYPDRDGDDLDQFQGTARSQVVQNQPAAAAVNLSESESFAGADEPPAAPRDASLIESHDMDEGPAAPARTLSPTGYEAGKHAPGGIANSDEAPPGAYNAQEYKHLNVGEDVRELFSYIGRYKPQTVELDTRIKPFIPDYIPAVGGIDEFIKVPRPDTKPDYLGLKVLDEPAAKQSDPTVLTLQLRQLSKEAPGAKADMVGRLEHTDENKAKKIQQWIASINDIHKAKPAATVNYSKRMPEIEALMQEWPPEVETFLKTMHMPSGDVELDIKTYARLVCTLLDIPVYDDPVESLHVLFTLYLEFKNNPIFRQHMEMENKLDGMSGGGGGMMGGGADVLGL | – |
| – | no binding | CrIFT46 D33K (protein, UniProt A2T2X4 1-344) MDDSMDYPDRDGDDLDQFQGTARSQVVQNQPHKEEVNLSESESFAGADEPPAAPRDASLIESHDMDEGPAAPARTLSPTGYEAGKHAPGGIANSDEAPPGAYNAQEYKHLNVGEDVRELFSYIGRYKPQTVELDTRIKPFIPDYIPAVGGIDEFIKVPRPDTKPDYLGLKVLDEPAAKQSDPTVLTLQLRQLSKEAPGAKADMVGRLEHTDENKAKKIQQWIASINDIHKAKPAATVNYSKRMPEIEALMQEWPPEVETFLKTMHMPSGDVELDIKTYARLVCTLLDIPVYDDPVESLHVLFTLYLEFKNNPIFRQHMEMENKLDGMSGGGGGMMGGGADVLGL | – |
